Source: PubChem BioAssay AID602310 (National Center for Advancing Translational Sciences (NCATS), 2012)
Hit rate of the full screen: of about 410,000 compounds, about 310 (0.076%) were called active. The shares of active, inactive and inconclusive entries below differ from those in the screen. Calls come from the whole dose curve; as a rule, active = well fitted curve in the direction sought with a large enough effect; inconclusive = small, poorly fitted or top-dose-only effect; inactive = flat fitted curve, though single readings scatter. Potencies beside an inconclusive call are fits to weak or partial responses and may not hold up.
% is set by controls: 0 for no effect and ±100 for the full control effect; potency is the fitted concentration of half-maximal effect; tags give direction and shape of the fitted curve.
Note: nearly all actives have a fitted effect of over 60% in size.
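Throughout, for activity, negative = active: hits raise eYFP signal because A3G escapes Vif-driven loss.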

Each compound was assayed against DNA dC->dU-editing enzyme APOBEC-3G (Homo sapiens) (UniProt Q9HC16) (assay: qHTS for Inhibitors of Vif-A3G Interactions: qHTS). Conditions: HeLa A3G-eYFP + Vif (tagged APOBEC3G with the HIV-1 protein that degrades it), YFP fluorescence, overnight; series mostly up to 46.1 µM; activity, negative = active: at the top concentration.
Chain of UniProt Q9HC16 (Q9HC16 whole entry, looked up): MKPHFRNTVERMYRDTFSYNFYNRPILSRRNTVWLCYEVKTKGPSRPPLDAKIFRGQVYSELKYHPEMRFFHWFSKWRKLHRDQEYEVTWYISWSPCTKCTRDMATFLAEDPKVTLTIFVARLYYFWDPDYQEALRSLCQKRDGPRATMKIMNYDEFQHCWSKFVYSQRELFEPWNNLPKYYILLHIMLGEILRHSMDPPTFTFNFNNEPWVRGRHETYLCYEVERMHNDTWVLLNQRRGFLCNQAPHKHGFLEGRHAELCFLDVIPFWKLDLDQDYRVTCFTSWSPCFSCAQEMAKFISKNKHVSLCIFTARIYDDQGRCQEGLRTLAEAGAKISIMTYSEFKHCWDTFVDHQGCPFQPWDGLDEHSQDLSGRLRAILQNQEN
Method in brief: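 HeLa cells stably expressing Vif and C-terminally eYFP-tagged A3G, seeded overnight at 37 deg C, then exposed to compound by pintool overnight at 37 deg C. Rise in yellow fluorescence (Ex 488/Em 500-530, Acumen) marks blocked Vif-driven A3G degradation.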
Cc1ccc2[nH]c(-c3cccc(F)c3)cc(=O)c2c1 was tested, and the Potency was inconclusive: 1.78 µM [inhibitor, full curve].
COc1ccc(C2c3ccc4ccccc4c3Oc3ncn(Cc4ccco4)c(=N)c32)cc1OC (configuration not stated) was tested, and the Potency was inconclusive: 10 µM [inhibitor, partial curve].
In the case of CC(=O)c1cc(NC(=O)c2ccc(Cl)cc2)c(=O)oc1/C=C/N(C)C, the Potency is reported as inconclusive: 3.98 µM [inhibitor, full curve, poor fit].
In the case of CN(C)c1ccc(C=C2SC(=S)NC2=O)cc1, the Potency is reported as active: 10 µM.
With O=C(CSc1nc(-c2ccccc2Cl)ns1)Nc1ccc2c(c1)OCO2 the Potency was inconclusive: 11.2 µM [inhibitor, partial curve, poor fit].
Cc1ccccc1NCC(=O)N=Nc1c(O)[nH]c2ccc([N+](=O)[O-])cc12 was tested, and the Potency was active: 5.01 µM.
For O=C1CC(c2cc(Br)ccc2F)c2cc3c(cc2N1)CCC3 (configuration not stated), the Potency was inconclusive: 0.631 µM [inhibitor, full curve, poor fit].
In the case of O=C(NCCc1ccccc1Cl)c1ccc(Cn2c(=O)c3cccn3c3cccnc32)cc1, the Potency is reported as inconclusive: 10 µM [inhibitor, partial curve, poor fit].
CCO[C@@H]1OC(C(=O)NCc2nc3ccccc3[nH]2)=C[C@H](C2CC2)[C@H]1CCCO was tested, and the Potency was inconclusive: 8.91 µM [inhibitor, partial curve].
For COc1ccc(C(=O)C/C(=C\C(=O)c2ccc(C)cc2)c2ccccc2)cc1, the “activity, negative = active” value was inactive: 2.24%.
For C=C(C(=O)O)C1CCC2(C)CCCC(C)(O)C2C1 (configuration not stated), the Potency was inconclusive: 11.2 µM [inhibitor, partial curve].
In the case of COc1cc(CNC(C)c2ccccc2)cc(Br)c1OCc1ccccc1 (configuration not stated), the Potency is reported as inconclusive: 20 µM [inhibitor, single point].
In the case of O=C(COc1ccccc1Cl)NC(=S)Nc1ccc(CN2CCOCC2)cc1, the Potency is reported as inconclusive: 4.47 µM [inhibitor, single point].
With O=C(CCCC(=O)c1ccc(O)cc1)c1ccc(O)cc1 the “activity, negative = active” value was inactive: -13%.
O=C(N/N=C/C(Br)=C/c1ccccc1)c1ccccc1F was tested, and the Potency was inconclusive: 22.4 µM [inhibitor, single point].
In the case of Cc1ccc(CNC(=O)CCS(=O)(=O)c2cc(Br)cc3c2N(C(=O)C2CC2)CC3)o1, the “activity, negative = active” value is reported as inactive: 0.0205%.
Cc1ccc(-c2n[nH]c(=O)c3ccccc23)cc1S(=O)(=O)Nc1ccccc1 was tested, and the Potency was inconclusive: 28.2 µM [inhibitor, single point].
CNc1ccc(Br)cc(C(=O)/C=C/c2ccc(Cl)cc2Cl)c1=O was tested, and the Potency was inconclusive: 10 µM [inhibitor, partial curve].
CCN1/C(=C2/SC(=S)N(NC(C)=O)C2=O)Sc2ccccc21 was tested, and the Potency was inconclusive: 35.5 µM [inhibitor, single point].
For CC(C)NC(=O)/C(C#N)=C/c1ccc(N(C)C)o1, the Potency was inconclusive: 35.5 µM [inhibitor, single point].
N#Cc1c(C(F)(F)F)cc(-c2ccccc2Cl)[nH]c1=O was tested, and the “activity, negative = active” value was inactive: -0.5%.
With CC(=O)N1/C(=C/c2ccc(N(C)C)cc2)C(=O)c2ccccc21 the Potency was inconclusive: 15.8 µM [inhibitor, single point].
In the case of COc1cccc(NC(=O)Cn2c(=O)n(-c3ccc(C)cc3)c(=O)c3ccc(C(=O)NCc4ccco4)cc32)c1, the “activity, negative = active” value is reported as inactive: -1.78%.
COc1ccccc1N(Cc1ccccc1)S(=O)(=O)c1cc(C(=O)O)ccc1Cl was tested, and the Potency was inconclusive: 28.2 µM [inhibitor, single point].
For CC(=O)Nc1sc(/C(C#N)=C/c2ccc(Cl)c(Cl)c2)nc1-c1ccc(C)cc1, the Potency was inconclusive: 2.24 µM [inhibitor, full curve, poor fit].
O=[N+]([O-])c1ccc(CN2CCN(c3ccc4ccccc4n3)CC2)cc1 was tested, and the “activity, negative = active” value was inactive: 4.17%.
With Cc1cccc(CN2C(=O)N/C(=C/c3ccc(C)s3)C2=O)c1 the Potency was inconclusive: 5.62 µM [inhibitor, full curve, poor fit].
Cc1ccc(Cn2nnc3c(=O)n(CC(=O)NCc4ccccc4)cnc32)cc1 was tested, and the Potency was inconclusive: 10 µM [inhibitor, partial curve].
With CCc1c(C)nc2cc(-c3ccc(OC)c(OC)c3)nn2c1NCC1CC1 the “activity, negative = active” value was inactive: -0.39%.
In the case of Cc1cccc(NC2SC(=O)N(c3ccccc3)C2=O)c1 (configuration not stated), the “activity, negative = active” value is reported as inactive: 1.34%.
For Cc1ccc(S(=O)(=O)N2CCCCC2CCNC(=O)C(=O)NCc2cccnc2)cc1 (configuration not stated), the “activity, negative = active” value was inactive: -25.1%.
In the case of Cc1cccc2c1N(CCOc1ccc(C(C)(C)C)cc1)C(=O)C2=O, the “activity, negative = active” value is reported as inactive: 0.724%.
With CCOc1cccc2c1OC(c1cc(OC)c(OC)c(OC)c1)N1N=C(c3ccc(C)o3)CC21 (configuration not stated) the Potency was inconclusive: 20 µM [inhibitor, single point].
Cc1ccc2nc(C)cc(Nc3ccc([N+](=O)[O-])cc3)c2c1 was tested, and the Potency was inconclusive: 3.16 µM [inhibitor, single point].
In the case of CCCN(Cc1cc2cc(OC)ccc2[nH]c1=O)C(=O)c1ccncc1, the Potency is reported as inconclusive: 35.5 µM [inhibitor, single point].
With O=C(CCN1C(=O)/C(=C/c2ccccc2F)SC1=S)NCCc1ccc(O)cc1 the “activity, negative = active” value was inactive: 0.132%.
For C[C@H]1CN([C@@H](C)CO)C(=O)c2cccc(NC(=O)Nc3ccc(C(F)(F)F)cc3)c2O[C@@H]1CN(C)C(=O)Nc1ccc(F)cc1, the Potency was inconclusive: 17.8 µM [inhibitor, partial curve, poor fit].
COc1ccc(-n2c(SCC(=O)Nc3ccc(C(N)=O)cc3)nc3c([nH]c4ccccc43)c2=O)cc1OC was tested, and the Potency was inconclusive: 35.5 µM [inhibitor, single point].
With COc1cc2c(=O)n(CCc3ccccc3)c(=O)n(CC(=O)Nc3ccccc3)c2cc1OC the Potency was inconclusive: 25.1 µM [inhibitor, single point].
With Cc1ccc(S(=O)(=O)C(C#N)c2nc3ccccc3nc2N2CCCC2)cc1 (configuration not stated) the Potency was inconclusive: 20 µM [inhibitor, single point].
With Cc1ccc(SCC(=O)N2CCCC2)cc1 the “activity, negative = active” value was inactive: 0.432%.
Cc1cccn2cc(-c3ccc(F)cc3)cc12 was tested, and the “activity, negative = active” value was inactive: -1.41%.
With Clc1cccc(Cl)c1/C=N/Nc1c(Cl)cncc1Cl the Potency was inconclusive: 3.55 µM [inhibitor, partial curve, poor fit].
In the case of Cc1ccc(C2C(C#N)=C(N)SC(N)=C2C#N)cc1, the Potency is reported as inconclusive: 35.5 µM [inhibitor, single point].
O=C(CN1CCN(c2ccc(F)cc2)CC1)Nc1nnc(-c2ccccc2)s1 was tested, and the “activity, negative = active” value was inactive: 0.451%.
For COc1ccc(C(=O)/C=C2/c3ccccc3CC(C)(C)N2C)cc1, the Potency was inconclusive: 4.47 µM [inhibitor, full curve, poor fit].
For O=C(NCC(c1cccs1)N1CCOCC1)c1ccc(Cl)c([N+](=O)[O-])c1 (configuration not stated), the Potency was inconclusive: 28.2 µM [inhibitor, single point].
For COc1cc(Cn2c3ccc(NC(=O)CCc4ccccc4)cc3c(=O)n2C)ccc1F, the Potency was inconclusive: 3.16 µM [inhibitor, partial curve, poor fit].
With CC(=O)N1CC(=O)N=C1SCC(=O)Nc1nc(C)c(-c2ccccc2)s1 the Potency was inconclusive: 35.5 µM [inhibitor, single point].
In the case of CSC1=NC(C)(C)C=C(/C=C/c2ccc(Cl)cc2Cl)N1, the Potency is reported as inconclusive: 22.4 µM [inhibitor, single point].
For CN1CCN(Cn2cc(/C=C/C(=O)c3ccccc3)c3ccccc32)CC1, the Potency was inconclusive: 35.5 µM [inhibitor, single point].
With CCOC(=O)C(C(=O)OCC)C(Nc1ccccc1)c1ccccc1 (configuration not stated) the Potency was inconclusive: 15.8 µM [inhibitor, single point].
Cn1c(/C=C/c2ccc([N+](=O)[O-])o2)nc2ccccc2c1=O was tested, and the Potency was active: 2.82 µM.
For COC(=O)C1C2CC3c4[nH]c5cc(OC)ccc5c4CCN3CC2CC(OC(=O)CC(C)=O)C1OC (configuration not stated), the Potency was inconclusive: 22.4 µM [inhibitor, partial curve, poor fit].
For Cc1c(Cl)cccc1NC(=O)Nc1nnc(N(C)Cc2ccccc2)s1, the Potency was inconclusive: 3.55 µM [inhibitor, partial curve, poor fit].
In the case of CC(C)C1OC2c3cccc4cccc(c34)C2N1c1ccccc1 (configuration not stated), the Potency is reported as inconclusive: 28.2 µM [inhibitor, single point].
For O=C(C[C@@H]1C[C@H]2c3cc(NC(=O)c4cccnc4)ccc3O[C@H]2[C@H](CO)O1)NCc1ccc(Oc2ccccc2)cc1, the Potency was inconclusive: 3.16 µM [inhibitor, partial curve, poor fit].
With C[C@@H](C(=O)NCc1ccccn1)[C@H]1C[C@]1(C)[C@H](NC(=O)OCc1ccccc1)c1ccccc1 the “activity, negative = active” value was inactive: -13.1%.
CCOC(=O)C(C(=O)OCC)C(Nc1ccc(Br)cc1)c1ccccc1 (configuration not stated) was tested, and the Potency was inconclusive: 22.4 µM [inhibitor, single point].
Cc1ccc2nc(C)c(C(=O)NN=C3CCN(C)CC3)n2c1 was tested, and the Potency was inconclusive: 15.8 µM [inhibitor, single point].
In the case of Cc1cccc(N2CC(C(=O)Nc3cccc(S(=O)(=O)N4CCCCC4)c3)CC2=O)c1C (configuration not stated), the “activity, negative = active” value is reported as inactive: 1.78%.
Fc1cccc(Cc2c(-c3ccco3)nc3ccc(Cl)cn23)c1 was tested, and the Potency was inconclusive: 22.4 µM [inhibitor, single point].
For O=C(C[n+]1ccc2ccccc2c1)c1cccc2ccccc12, the “activity, negative = active” value was inactive: -0.142%.
For COc1ccc(-c2cc(C(F)F)n3ncc(C(=O)N4CCSCC4)c3n2)cc1, the “activity, negative = active” value was inactive: 2.67%.
With COc1cc(/C=C/C(C)=NNc2ccccc2)ccc1O the Potency was inconclusive: 15.8 µM [inhibitor, partial curve, poor fit].
Cc1cccc(NC(c2ccc(O)cc2)c2ccc3ccc(C)nc3c2O)n1 (configuration not stated) was tested, and the “activity, negative = active” value was inactive: -25.7%.
COc1ccc(OC)c(/C=N/Nc2nncn2/N=C/c2cc(OC)ccc2OC)c1 was tested, and the Potency was inconclusive: 7.08 µM [inhibitor, partial curve].
